# Laboratory results reported in PubChem BioAssay (NCATS).
# Values joined by “and” are separate entries in the source; they are usually repeats but may differ in a detail not shown here. Identical values can stand only once. This list was built around the results that the source calls inconclusive (neither active nor inactive); the mix of calls is not that of the screen. For some assays here: A potency beside an inconclusive call is a rough fit, not a confirmed value. Active and inactive are the calls of the source. Unless noted, calls follow the shape of the dose curve; as a rule, active = well fitted curve in the direction sought with a large enough effect in the repeat runs; inconclusive = weak or mixed curves; inactive = no such curve, though single readings can be large; an effect the other way counts as inactive or inconclusive.
# Tests used:
# [1] = Primary qHTS for small molecule stabilizers of the endoplasmic reticulum resident proteome: Secreted ER Calcium Modulated Protein (SERCaMP) assay (AID 1508630; active = well fitted curve in the direction sought with a large enough effect; inconclusive = small, poorly fitted or top-dose-only effect, or another doubt; inactive = no such curve, though single readings can be large; an effect the other way counts as inactive or inconclusive; also: potency is read from the fitted curve at half-maximal effect); conditions: SH-SY5Y GLuc-SERCaMP (Gaussia luciferase released on ER calcium loss) secretion, thapsigargin, luminescence; series mostly up to 38.4 µM
# Method in brief: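 The SH-SY5Y reporter protocol was run at 3 concentrations up to 38.3 uM (primary) or 11 concentrations (follow-up): 16 h compound, 100 nM thapsigargin for 4 h, then extracellular luciferase luminescence.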
# [2] = molecular target: Cytochrome P450 2C9 (Homo sapiens) (UniProt P11712); experiment: Cytochrome P450 family 2 subfamily C member 9 (CYP2C9) small molecule antagonists: luciferase biochemical (cell-free) qHTS assay (AID 1645842); also: nearly all actives have a fitted effect of over 55% in size; also: potency is read from the fitted curve at half-maximal effect
# Chain of UniProt P11712 (P11712 whole entry, looked up): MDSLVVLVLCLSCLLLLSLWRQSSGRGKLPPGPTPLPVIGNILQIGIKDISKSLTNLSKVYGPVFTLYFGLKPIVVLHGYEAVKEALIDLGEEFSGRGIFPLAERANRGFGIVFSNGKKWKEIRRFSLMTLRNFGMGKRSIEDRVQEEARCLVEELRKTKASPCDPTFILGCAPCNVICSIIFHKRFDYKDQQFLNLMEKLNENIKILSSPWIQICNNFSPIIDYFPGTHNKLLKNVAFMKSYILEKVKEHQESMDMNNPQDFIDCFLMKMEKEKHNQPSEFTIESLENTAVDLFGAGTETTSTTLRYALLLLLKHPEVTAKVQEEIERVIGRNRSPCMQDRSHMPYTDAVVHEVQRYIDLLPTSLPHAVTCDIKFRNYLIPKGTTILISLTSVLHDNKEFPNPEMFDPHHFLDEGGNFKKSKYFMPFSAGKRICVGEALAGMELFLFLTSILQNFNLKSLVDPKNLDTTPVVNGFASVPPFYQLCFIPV
# Method in brief: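 P450-Glo CYP2C9 system: proluciferin substrate with enzyme in mix containing 0.4% BSA, 10 min at room temperature, then NADPH regeneration solution added and incubated 1 h at 37C. Detection reagent stopped reaction; luminescence read after 20 min as RLU.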
# [3] = molecular target: Cytochrome P450 3A4 (Homo sapiens) (UniProt P08684); experiment: Cytochrome P450 family 3 subfamily A member 4 (CYP3A4) small molecule antagonists: luciferase qHTS assay (AID 1645841); also: nearly all actives have a fitted effect of over 45% in size; also: potency is read from the fitted curve at half-maximal effect
# Chain of UniProt P08684 (P08684 whole entry, looked up): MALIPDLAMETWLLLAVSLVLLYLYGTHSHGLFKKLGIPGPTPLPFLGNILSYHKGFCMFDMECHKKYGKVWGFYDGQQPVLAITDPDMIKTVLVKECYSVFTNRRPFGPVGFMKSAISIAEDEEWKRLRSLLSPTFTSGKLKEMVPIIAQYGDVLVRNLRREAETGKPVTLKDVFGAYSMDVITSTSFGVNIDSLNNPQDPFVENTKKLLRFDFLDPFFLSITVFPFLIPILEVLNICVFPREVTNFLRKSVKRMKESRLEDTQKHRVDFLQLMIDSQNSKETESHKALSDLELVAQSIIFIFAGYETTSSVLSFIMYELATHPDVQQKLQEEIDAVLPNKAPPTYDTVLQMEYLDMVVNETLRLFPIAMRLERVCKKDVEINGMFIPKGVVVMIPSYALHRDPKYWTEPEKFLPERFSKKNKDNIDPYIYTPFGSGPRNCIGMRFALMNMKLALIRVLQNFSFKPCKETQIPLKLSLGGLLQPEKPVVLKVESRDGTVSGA
# Method in brief: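 P450-Glo CYP3A4 enzyme with proluciferin substrate preincubated 10 min with compound at room temperature, then NADPH regeneration 1 h. Luciferin detection reagent added for 20 min; luminescence recorded. Ketoconazole positive control.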
# [4] = molecular target: Cytochrome P450 2D6 (Homo sapiens) (UniProt P10635); experiment: Cytochrome P450 family 2 subfamily D member 6 (CYP2D6) small molecule antagonists: luciferase biochemical (cell-free) qHTS assay (AID 1645840); also: nearly all actives have a fitted effect of over 55% in size; also: potency is read from the fitted curve at half-maximal effect
# Chain of UniProt P10635 (P10635 whole entry, looked up): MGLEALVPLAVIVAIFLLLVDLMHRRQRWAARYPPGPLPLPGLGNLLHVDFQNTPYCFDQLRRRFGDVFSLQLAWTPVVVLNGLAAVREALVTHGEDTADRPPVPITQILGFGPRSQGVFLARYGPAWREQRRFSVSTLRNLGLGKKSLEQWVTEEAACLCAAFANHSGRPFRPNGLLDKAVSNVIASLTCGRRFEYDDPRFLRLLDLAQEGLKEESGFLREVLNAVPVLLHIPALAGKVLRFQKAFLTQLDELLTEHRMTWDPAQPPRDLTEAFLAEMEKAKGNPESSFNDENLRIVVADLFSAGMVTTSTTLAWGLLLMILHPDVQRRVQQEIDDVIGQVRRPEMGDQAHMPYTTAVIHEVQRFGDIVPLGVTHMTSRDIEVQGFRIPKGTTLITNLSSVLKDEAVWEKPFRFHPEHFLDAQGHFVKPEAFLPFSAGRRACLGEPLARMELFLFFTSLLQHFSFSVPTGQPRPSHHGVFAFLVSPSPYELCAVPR
# Method in brief: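 P450-Glo CYP2D6 system: proluciferin substrate converted by enzyme to luciferin, read by luminescence proportional to activity. Enzyme-substrate mix with compound 10 min at room temperature, then NADPH regeneration 1 h before detection reagent.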
# [5] = Cytotoxicity counterscreen for inhibitors of SARS-CoV-2 cell entry (AID 1645845; calls by dose curve; also: nearly all actives have a fitted effect of over 50% in size); conditions: activity change, negative = cytotoxicity: at 57.1 µM (top of the series) unless noted
# Method in brief: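 Counterscreen run in the same HEK293-ACE2 line as the pseudotyped-particle entry assay, without particles. Viability after 48 h at 37 C was read as ATP luminescence, scaled between cell-containing and cell-free wells.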
# Tags tell the direction and shape of the fitted curve.
SMILES,Potency [1],Potency [2],Potency [3],Potency [4],Potency [5]
O=C(O)COc1nc(Cl)c(Cl)cc1Cl,inactive,inactive,,,
CC[N+]1(CCOC(=O)C(O)(c2ccccc2)c2ccccc2)CCCCC1,"inconclusive: 28.2 µM [inhibitor, single point]",,inactive,,
CC(C)=CC1C(C(=O)OCN2C(=O)C3=C(CCCC3)C2=O)C1(C)C (stereo not drawn),inactive,,"inconclusive: 43.6 µM [falling, partial curve, poor fit]",active: 6.92 µM,
CNC(=O)Oc1cccc2ccccc12,"inconclusive: 1 µM [inhibitor, full curve]",,"inconclusive: 11 µM [falling, partial curve, poor fit]",,inactive
CC(C)(C)NCC(O)c1cc(Cl)c(N)c(Cl)c1 (stereo not drawn),inactive,inactive,,"inconclusive: 34.7 µM [inhibitor, single point]",inactive
CCN(CC)Cc1nccn1-c1ccc([N+](=O)[O-])cc1C(=O)c1ccccc1Cl,"inconclusive: 22.4 µM [inhibitor, single point]","inconclusive: 15.5 µM [inhibitor, partial curve]",,,
CC1NCCOC1c1ccccc1 (stereo not drawn),"inconclusive: 28.2 µM [inhibitor, single point]",,,"inconclusive: 24.5 µM [inhibitor, single point]",
CCN(CC)C(=O)c1ccc(C2=CC3(CCNCC3)Oc3cccc(O)c32)cc1,inactive,"inconclusive: 23.9 µM [inhibitor, single point]",,"inconclusive: 23.9 µM [inhibitor, partial curve, poor fit]",
Nc1ccc([As](=O)(O)O)cc1,"inconclusive: 10 µM [inhibitor, partial curve, poor fit]",inactive,inactive,,
COP(=S)(OC)Oc1ccc(S(N)(=O)=O)cc1,"inconclusive: 31.6 µM [inhibitor, single point]",active: 4.36 µM,,"inconclusive: 24.5 µM [inhibitor, single point]",
CC(NC(C)(C)C)C(=O)c1cccc(Cl)c1 (stereo not drawn),"inconclusive: 28.2 µM [inhibitor, partial curve, poor fit] and inactive",,"inconclusive: 24.5 µM [falling, single point]",,inactive
CC[N+]1(CC)CCC(OC(=O)C(O)(c2ccccc2)c2ccccc2)C1 (stereo not drawn),"inconclusive: 10 µM [inhibitor, partial curve, poor fit]",,"inconclusive: 34.7 µM [falling, single point]",active: 12.9 µM,
NCCc1cc(O)c(O)cc1O,"inconclusive: 11.2 µM [inhibitor, partial curve, poor fit]",inactive,"inconclusive: 0.776 µM [falling, full curve, poor fit]",,
CN(C)CCc1c[nH]c2cccc(OP(=O)(O)O)c12,inactive,,"inconclusive: 34.9 µM [falling, single point]","inconclusive: 13.9 µM [inhibitor, full curve]",
CC(C(O)c1ccccc1)N(C)C/C=C/c1ccccc1 (stereo not drawn),"inconclusive: 25.1 µM [inhibitor, single point]","inconclusive: 11 µM [inhibitor, partial curve]",,active: 0.0389 µM,inactive
Cc1ccc(N=CN(C)C=Nc2ccc(C)cc2C)c(C)c1,"inconclusive: 31.6 µM [inhibitor, partial curve, poor fit]",,,"inconclusive: 34.7 µM [inhibitor, single point] and inconclusive: 37.9 µM [inhibitor, partial curve, poor fit]",
Cc1sc2c(c1C)C(c1ccc(Cl)cc1)=N[C@@H](CC(=O)OC(C)(C)C)c1nnc(C)n1-2,inactive,,,inactive,
COc1cc(OC)c(OC)cc1C=O,"inconclusive: 10 µM [inhibitor, full curve] and inconclusive: 2.24 µM [inhibitor, full curve, poor fit]",,,inactive,
CN1CC[C@]23c4c5ccc(O)c4O[C@H]2[C@@H](O)CC[C@H]3[C@H]1C5,"inconclusive: 31.6 µM [inhibitor, single point]",,,"inconclusive: 2.47 µM [inhibitor, single point]",
CC(=O)Nc1ccc(OC[C@](C)(O)C(=O)Nc2ccc([N+](=O)[O-])c(C(F)(F)F)c2)cc1,inactive,,,"inconclusive: 21.3 µM [inhibitor, single point]",
